The source of these data is publication PMC12136788.

T1: UNK ZnF1-3 (human, UniProt Q9C0B0 31-174)
T1 sequence: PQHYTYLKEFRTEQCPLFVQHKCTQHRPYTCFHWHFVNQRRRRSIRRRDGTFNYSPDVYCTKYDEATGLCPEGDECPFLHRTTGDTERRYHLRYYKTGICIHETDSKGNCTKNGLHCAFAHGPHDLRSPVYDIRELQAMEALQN

B1: chr7:155493584:155493585:+_ENSG00000184863_ENST00000401878|hu_hu|motif|central (ssRNA)
RNA: GGGAGUUCUACAGUCCGACGAUCUGAAAGCUCCAAAGUUUCUGGAAUGUUCCUUCUCUCUCUAGUUACAUCUGAGAGCCGGAUAAUUGUUCCUUCUUUCCUUUCAGUUUUGAAACGUAAUCGUCCAGAUUCUUCAUCAUCUUCCAACAGAGGAUUGAGCAUCA
B2: 101276289_101276409_1697_CDS_ENSG00000034677_ENST00000519449|human|control|control (ssRNA)
RNA: GGGAGUUCUACAGUCCGACGAUCUAUAUCAUUUUCAUCAUCAAAUUCAAUCCUAACUCCUUUUCCAUUGCCUGCUGAGACUCCACAACCUCCGCUUCGACAAAGAGAAAUUGGAACUACGCCAUAGACAUAAGCUAACAUAAUCAACAGAGGAUUGAGCAUCA
B3: chr2:202488911:202488912:-_ENSG00000155755_ENST00000286196|hu_mus|hu_hu_hu_mus_False|38_48 (ssRNA)
RNA: GGGAGUUCUACAGUCCGACGAUCAUUGAAACAUUUUUCAUAAUCUCCAGUAGCAUUUCAGCAUUAUGUAACAAAAGCUCAAUUGUAAAUACACAUGUAUACAUCUUAUACACUUAAAAACACGAGUGGGGAGCGCAGGCGCCACAACAGAGGAUUGAGCAUCA
B4: chr11:52220846:52220847:+_ENSMUSG00000036275_ENSMUST00000036952|mus_mus|FALSE|FALSE (ssRNA)
RNA: GGGAGUUCUACAGUCCGACGAUCGGGCCUUUCAAAGGGAACACUGCUGCCAGAGGCACAAUAAAUGGAAAAUAAUAAGAACUACACCAAAGGAUAAAGUAAUGUUUAACUCACAUUUCAGACACCUGAUUGAAUCUAGCUCUACAACAGAGGAUUGAGCAUCA
B5: 125816376_125816496_1655_3pUTR_ENSMUSG00000042608_ENSMUST00000094761|mouse|control|control (ssRNA)
RNA: GGGAGUUCUACAGUCCGACGAUCAUUCUCAGAUAAAAAAACAAUCAAGCAAUCAUCCCAAAAGGUAGCUCUGUGGUACCUCUGUUGACCCUGGCUGUGACCUGGGCUGUCCCUAUCCCUGCCCUAUCCCUACUGCAGCCUGGGCAACAGAGGAUUGAGCAUCA
B6: chr1:100327937:100327938:+_ENSG00000162688_ENST00000361915|hu_hu|FALSE|FALSE (ssRNA)
RNA: GGGAGUUCUACAGUCCGACGAUCUUCUUUUGCAACCCUAAGUCUGCUUUCCCAUUCAUCAAAAGGUCCCAAACACUUAGCUAAAAAUGUCUGAAGAGUAACACAGUCCAAGGGUAGCACAUGAUUAUCAGCACCAACACGUAACAACAGAGGAUUGAGCAUCA
B7: chr17:65740002:65740003:+_ENSG00000130935_ENST00000581375|hu_hu|hu_hu_hu_mus_False|18_88 (ssRNA)
RNA: GGGAGUUCUACAGUCCGACGAUCAACAAAUCUUUCUUCCCUGGACGCAAGAGUUCAUUCAUAUUAAAAAAAAUAUAUAUCCAUCAAGUUAGGUGUGGUGGCCACACCUUUACUCCCCACUUCAAUUGAGGUGGAUCUCUGAGUCAACAGAGGAUUGAGCAUCA
B8: chr9:70551142:70551143:+_ENSMUSG00000054693_ENSMUST00000067880|mus_mus|motif|central (ssRNA)
RNA: GGGAGUUCUACAGUCCGACGAUCACGCUGGUGUUUUUGGUGUAAUGAAUCCACAUUGUAAGAUAAUCCUUCAUAAUGUCGGAUAUAUUUAUUUAAAGGAUUUCCAUACUGACCUCCCAGCCCCGCCGCCCAGGAGAGGAGCAGCAACAGAGGAUUGAGCAUCA
B9: chr1:224612315:224612316:-_ENSG00000162923_ENST00000295024|hu_mus|FALSE|FALSE (ssRNA)
RNA: GGGAGUUCUACAGUCCGACGAUCCGUCAGUUCGCAGCGUAGAACUUGAAGUGCCUCCAGGACCUUGCCGUCCUCCAGGUAUUCCAGGUACUUCUGCUGCAGCAGCAGAAACUUCAUCCUCACAAUAGCGUGAGGAGAAUGCACCAACAGAGGAUUGAGCAUCA
B10: chr12:56499883:56499884:+_ENSMUSG00000021024_ENSMUST00000021412|mus_hu|motif|central (ssRNA)
RNA: GGGAGUUCUACAGUCCGACGAUCGGUAAUGUGGCGGUCAAAACCGGCGCUGGAACCACGGGACAUGUUGGUAGAAGCACGGCUUUAAACACAAUCCCUGGGCCCCGUAGCUCCCGCACCAGGCACACAAGCACCUCCCGGAAGCAACAGAGGAUUGAGCAUCA
B11: chr18:43482012:43482013:-_ENSMUSG00000024501_ENSMUST00000121805|mus_mus|FALSE|FALSE (ssRNA)
RNA: GGGAGUUCUACAGUCCGACGAUCGGAUUGAUCCCCAAAUUUGAAUUGUAACUCAAAACUUCAUUCCAUUCUUUUUCUUCUAAAGUCUCCUUUAAAAUGAAAGCACCAUGAGAGCUUUAAAGAAGCAAGAUUCCUCUUCUGAGGCAACAGAGGAUUGAGCAUCA
B12: chr7:106826281:106826282:+_ENSG00000105856_ENST00000468410|hu_hu|FALSE|FALSE (ssRNA)
RNA: GGGAGUUCUACAGUCCGACGAUCUUCACUCUUCGAAGAAGAGGACACUGGUGGAGGGCGUGCAUAGGAAUGUAAACUUUUGCUAGUGGCUAUGAUGUGUACAGGAGAUGAUCUAUUGUAAAAUGAGCACUGCAUCAGUGGACUCAACAGAGGAUUGAGCAUCA
B13: chr4:144391305:144391306:+_ENSG00000109458_ENST00000262995|hu_mus|motif|central (ssRNA)
RNA: GGGAGUUCUACAGUCCGACGAUCCGGUGGAGAGAGAGAGAGAGCGAGCGAGCUAAGAGUAGUAAUCUUGAAUUCCUGCCGGAUUCAUUCAAAAUCACACUAUGCUGCUGACAGUGAACGCCAACUGUUUCAUUAAUUCUAAACCAACAGAGGAUUGAGCAUCA
B14: chr8:97244095:97244096:-_ENSG00000156467_ENST00000518406|hu_hu|FALSE|FALSE (ssRNA)
RNA: GGGAGUUCUACAGUCCGACGAUCAUGCUUCAAGUUCAGGUCCAGUGCCCUCUUAAUGCGAAACAUCCUGUCAUUAUAAAGGUUCUCAGGAAGUCUUCUUAUGGCUUCUUUUACAUCUUCAUCCUCGUAUAUUGUAUCAUCUCGCAACAGAGGAUUGAGCAUCA
B15: 46963496_46964334_1533_3pUTR_ENSMUSG00000025041_ENSMUST00000168536|mouse|control|control (ssRNA)
RNA: GGGAGUUCUACAGUCCGACGAUCAUUGAUAUCCACAUGCGUGUGUUCCACCGUUGACUCGUGCGGCAUCAGGACAUGGGCAGCUCUGAAGAGGUAGCUGAAUGGGUAGUACAGCAGGUUGAUGAACGAGGCCGCAUAGAGAUCCAACAGAGGAUUGAGCAUCA
B16: chr7:141445308:141445309:+_ENSG00000106028_ENST00000265304|hu_hu|hu_hu_hu_mus_False|48_98 (ssRNA)
RNA: GGGAGUUCUACAGUCCGACGAUCUAUGAUUGUUGUUGCUUGUCGCCUCACAUUGUUUUUAUCCAUGUACUCGCCAUAGUCCACUUUCCCUUCCAAAAAUAUACGAGCCCCCUUUUUCACAUACUGAUAUGCCACAUCUCUGAGCAACAGAGGAUUGAGCAUCA
B17: chr19:16212804:16212805:+_ENSG00000167460_ENST00000300933|hu_mus|hu_hu_hu_mus_False|18_108 (ssRNA)
RNA: GGGAGUUCUACAGUCCGACGAUCAACAAAUAUGCAAUGAAGGAAAGAUGUAACAUGGAACAGCAUUAAAGCUCAGUCAGAAGGCACAUGGGCAACAAUGAUCACCCCAGCAUUCUCCUACGUUGACCUUAAAGACAAUCUGUUCAACAGAGGAUUGAGCAUCA
B18: chr14:102368134:102368135:+_ENSG00000078304_ENST00000445439|hu_hu|hu_hu_hu_mus_True|78_108 (ssRNA)
RNA: GGGAGUUCUACAGUCCGACGAUCAAGGGGUUCCAUGAUCUUCACAAACUCUGAUGGUUCAAUGACAUCUAAAAUUUCUUCUAAUUCAUUUAAGAACAUUACUUCUUUUGGACUGUGAGUCUUUGGCCAGUAUUUGAGAAGUGCCAACAGAGGAUUGAGCAUCA
B19: chr7:99593380:99593381:+_ENSMUSG00000052572_ENSMUST00000098308|mus_hu|motif|central (ssRNA)
RNA: GGGAGUUCUACAGUCCGACGAUCGGUGAGGAGGCUCUCAUCUCAUCUCUUGGGCAGAAAGCCCGUCAGAGGUUCAUCCCGGCACCUGGCACUUUGAGCAAACCAAAGCCUUCCUUCAUACUGCAAUGUCUUUUCUGUCCCACCCAACAGAGGAUUGAGCAUCA
B20: chr4:140556289:140556290:+_ENSMUSG00000036622_ENSMUST00000037055|mus_mus|mus_mus_mus_hu_False|58_58 (ssRNA)
RNA: GGGAGUUCUACAGUCCGACGAUCGAUGGAGCUCACCAGGCCCCCUUUUGCCGUGCAGAACCCUGUGCGGGUCACCACUGCUAGCACGUGCGGUCCCACAUAGGCCCGGGCCUGCAAGAUGAGGGUCCCGCAGAAGAGUGUGUGCAACAGAGGAUUGAGCAUCA
B21: chr2:73747301:73747302:-_ENSMUSG00000018770_ENSMUST00000018914|mus_hu|FALSE|FALSE (ssRNA)
RNA: GGGAGUUCUACAGUCCGACGAUCAUAACCAAUGAUAAGGCUGCCAAAGACUGUUCCAAUACCAGCACCAGAACCAGCCACUCCUACUGUUGCAGCACCUGCACCAAUAAAUUUGGCAGCAGUAUCAAUGUCUCUGCUGAUUGCCAACAGAGGAUUGAGCAUCA
B22: chr7:54825262:54825263:-_ENSG00000132432_ENST00000352861|hu_hu|hu_hu_hu_mus_False|8_98 (ssRNA)
RNA: GGGAGUUCUACAGUCCGACGAUCCUGCCGGCUGGGCACAAACUGCAGCAUUACCUGAUCCAUGUUUGUUGGAUGGCGGAUUGAGAGCGUAGAGACACGUAGCUCAGGAGAGAACCGAGCCCAACGGCACCGGAACCUGGCAACCAACAGAGGAUUGAGCAUCA

This is one part of the list.

This assay deals with T1, UNK ZnF1-3. Kind of assay: nsRBNS (natural sequence RNA bind-n-seq); RBNS binding buffer (assumed for nsRBNS): 25 mM Tris pH 7.5, 150 mM KCl, 3 mM MgCl2, 0.01% Triton X-100, 500 ug/ml BSA, 20 U/ml SUPERase-In, 4 C; UNK is unkempt and MSI1 is Musashi-1; names of the RNAs are library labels; protein concentration not given here; high values mean tight binding.
In the case of B1, the binding signal is 0.486 enrichment R.
The same measure for B2: 1.19 enrichment R; for B3: 0.898 enrichment R; for B4: 2.06 enrichment R.
The molecule B5 came in with a binding signal of 1.27 enrichment R.
The molecule B6 came in with a binding signal of 1.32 enrichment R.
As for B7, the binding signal was 0.926 enrichment R.
With B8 the figure was 1.56 enrichment R; with B9, 0.404 enrichment R.
With B10 the figure was 0.64 enrichment R; with B11, 0.853 enrichment R; with B12, 1.44 enrichment R.
On to B13, for which the binding signal worked out at 1.39 enrichment R.
In turn, B14 gave a binding signal of 0.55 enrichment R.
Consider B15, for which the binding signal amounted to 1.16 enrichment R.
B16 yielded a binding signal of 0.742 enrichment R.
B17: the binding signal was found to be 1.06 enrichment R.
The same measure for B18: 0.734 enrichment R.
With B19, the binding signal is 1.41 enrichment R.
With B20 the figure was 1.08 enrichment R.
In turn, B21 yielded a binding signal of 0.802 enrichment R.
For the molecule B22, the binding signal worked out at 1.34 enrichment R.
